We go through 3 molecules from PubChem BioAssay (NCI).

Holding throughout (assay): growth of human tumour cells (NCI), 48 h
The test system of assay [1] is LOX IMVI melanoma.
Assay [2] relates to MCF7 breast.
The test system of assay [3] is HS 578T breast.
The subject of assay [4] is K-562 leukemia.
Assay [5] has as its system U251 CNS.
In assay [6] the test system is SF-268 CNS.
In assay [7] the test system is SN12C renal.
Assay [8] concerns NCI-H226 lung.
Assay [9] has as its system EKVX NSCLC.
In assay [10] the test system is NCI-H522 lung.
The test system of assay [11] is CCRF-CEM leukemia.
Assay [12] relates to 786-0 renal.
The subject of assay [13] is SF-295 CNS.
Assay [14] relates to OVCAR-4 ovarian.
In assay [15] the test system is HOP-62 NSCLC.
Assay [16] has as its system ACHN renal.
Assay [17] deals with A549 NSCLC.
The subject of assay [18] is SK-MEL-2 melanoma.
Assay [19] concerns TK-10 renal.
For assay [20], the system named is SK-MEL-28 melanoma.

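Protocol summary: plate cells (96-well), add compound at 5 concentrations, incubate 48 h, interpolate endpoints linearly. At the GI50, growth is halved.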 Some entries of the source have several records that differ or are many. The list is limited to them. The source may hold further records. The records of an entry repeat one measurement in other runs, samples, wells, individuals or studies. What stands in brackets tells the records apart. A, B and so on number the origins entry by entry.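 TGI marks complete inhibition of growth.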 Bounds are passed on as bounds.

Consider `O=C(Nc1ccc([N+](=O)[O-])cc1Cl)c1cc(Cl)ccc1O`, for which the TGI was 7.05 µM [sample A, mean of 2 tests] and 645 nM [sample B, 1 test] in assay [1]; > 100 µM [sample A, 1 test] and 1.13 µM [sample B, mean of 2 tests] in assay [2]; 884 nM [sample A, mean of 2 tests] and 11.7 µM [sample B, mean of 2 tests] in [3]; > 100 µM [sample A, mean of 2 tests] and 5.19 µM [sample B, mean of 2 tests] in assay [4]; > 100 µM [sample A, mean of 2 tests] and 9.97 µM [sample B, mean of 2 tests] in assay [5]; > 92.9 µM [sample A, mean of 2 tests] and 5.2 µM [sample B, mean of 2 tests] in assay [6]. Further, the TGI in [7] is > 33.4 µM [sample A, mean of 2 tests] and 2.34 µM [sample B, mean of 2 tests]; in [8] it was 9.44 µM [sample A, mean of 2 tests] and 646 nM [sample B, 1 test]; in [9], > 100 µM [sample A, mean of 2 tests] and 4.77 µM [sample B, mean of 2 tests]; in [10] it was 3.19 µM [sample A, mean of 2 tests] and 276 nM [sample B, mean of 2 tests]; in [11] it was 14.1 µM [sample A, 1 test] and 1.31 µM [sample B, 1 test].

Regarding `Cn1cc(-c2[nH]c3cc(NC(=O)[C@H](N)C4CCCCC4)cc4c3c2C=NNC4=O)cn1`, the TGI in assay [12] is 858 nM [sample A, mean of 2 tests] and > 10 µM [sample B, mean of 2 tests]; in [13], 986 nM [sample A, mean of 2 tests] and > 10 µM [sample B, mean of 2 tests].

`Cc1cc(C(=O)NOCCO)c(Nc2ccc(I)cc2F)n(C)c1=O`: the GI50 in assay [14] is > 10 µM [sample A, mean of 2 tests] and 640 nM [sample B, mean of 2 tests]; in assay [15] it was 26.8 nM [sample A, mean of 2 tests] and 495 nM [sample B, mean of 2 tests]; in assay [1], 5.46 nM [sample A, mean of 2 tests] and 283 nM [sample B, mean of 2 tests]; in assay [16] it was 44.1 nM [sample A, 1 test] and 2.97 µM [sample B, mean of 2 tests]; in assay [17] it was 69.6 nM [sample A, 1 test] and 813 nM [sample B, mean of 2 tests]; in [19] it was > 10 µM [sample A, 1 test] and < 10 nM [sample B, mean of 2 tests]. In addition, the TGI was 1.2 µM [sample A, 1 test] and < 10 nM [sample B, 1 test] in [18]; 13.9 nM [sample A, 1 test] and > 100 µM [sample B, 1 test] in assay [20].
